Laboratory results: PMC4336329 (PLoS ONE, 2015)
Hit rate of the full screen: of about 310,000 compounds, about 2,200 (0.71%) showed an effect of 50% or more. Effects have a minus sign here. Some of the results follow.

Biological target: human ether-à-go-go-related gene (hERG) potassium channel (human, UniProt Q12809)
Test: primary screen, population patch clamp on CHO cells stably expressing hERG
Description: Briefly, Chinese hamster ovary (CHO) cells stably expressing the hERG channel were dislodged from tissue culture flasks and dispensed into PPC plates. […] During the recording, background leak currents were estimated by a 100 ms step to -80 mV from an initial holding potential of -70 mV and subtracted from the subsequent current measurement. The campaign was conducted in two phases using slight differences in recording protocol. In the first phase, the initial voltage pulse used a 100 ms step to -30 mV from a holding potential of -70 mV, a 2 s conditioning step to +25 mV, and a 2 s test step to -30 mV. During the second phase of the screen, the potential during the conditioning step was raised to +45 mV. In both phases of the campaign, a secondary voltage pulse was applied using the same parameters as the second phase initial pulse. The initial and secondary pulses were applied in the absence of compound, and upon application of 1 μM and 10 μM test concentrations. Small molecule effects on hERG current density were quantified by […].

Chain of human ether-à-go-go-related gene (hERG) potassium channel (Q12809 whole entry, looked up): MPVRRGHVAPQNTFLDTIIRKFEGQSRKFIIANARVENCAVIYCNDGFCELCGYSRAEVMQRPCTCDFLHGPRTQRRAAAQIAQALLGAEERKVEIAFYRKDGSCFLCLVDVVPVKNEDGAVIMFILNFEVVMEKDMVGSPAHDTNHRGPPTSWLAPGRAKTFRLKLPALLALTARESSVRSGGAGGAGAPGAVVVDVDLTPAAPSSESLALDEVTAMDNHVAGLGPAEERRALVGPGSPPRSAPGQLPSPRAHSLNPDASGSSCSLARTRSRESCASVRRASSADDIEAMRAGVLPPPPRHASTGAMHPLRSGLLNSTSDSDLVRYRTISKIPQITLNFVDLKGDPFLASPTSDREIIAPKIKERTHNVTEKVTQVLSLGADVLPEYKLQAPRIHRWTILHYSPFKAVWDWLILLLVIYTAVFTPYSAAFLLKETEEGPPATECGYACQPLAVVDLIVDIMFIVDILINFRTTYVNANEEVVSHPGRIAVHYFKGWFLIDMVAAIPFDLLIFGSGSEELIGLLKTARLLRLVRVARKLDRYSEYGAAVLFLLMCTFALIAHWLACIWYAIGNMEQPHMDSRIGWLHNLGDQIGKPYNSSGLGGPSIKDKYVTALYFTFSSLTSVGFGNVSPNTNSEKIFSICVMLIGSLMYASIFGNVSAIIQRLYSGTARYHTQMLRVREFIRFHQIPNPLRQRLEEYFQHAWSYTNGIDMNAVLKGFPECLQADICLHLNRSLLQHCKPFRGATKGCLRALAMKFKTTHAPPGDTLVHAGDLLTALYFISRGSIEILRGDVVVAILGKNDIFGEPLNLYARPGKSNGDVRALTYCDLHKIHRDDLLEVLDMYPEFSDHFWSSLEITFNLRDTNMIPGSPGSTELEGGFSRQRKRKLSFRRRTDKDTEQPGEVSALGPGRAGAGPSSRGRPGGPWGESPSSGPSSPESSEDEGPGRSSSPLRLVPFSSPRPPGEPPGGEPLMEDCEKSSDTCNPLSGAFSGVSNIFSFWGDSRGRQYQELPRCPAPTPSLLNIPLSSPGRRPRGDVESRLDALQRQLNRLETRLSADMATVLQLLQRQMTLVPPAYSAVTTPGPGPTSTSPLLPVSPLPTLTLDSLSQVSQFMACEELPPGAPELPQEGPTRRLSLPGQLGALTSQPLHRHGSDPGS

Row | SMILES | hERG current change (%, negative = inhibition) at 1uM
1 | COCCn1c(=NC(=O)C(C)(C)C)sc2cc([N+](=O)[O-])ccc21 | 4.88%
2 | Cc1cc(C)c(C(N)=O)c(Nc2cccc(Cl)c2C)n1 | 10.9%
3 | CCOc1ccc(-n2c(C)nc3cc(C(=O)NCc4ccco4)ccc32)cc1 | -1.02%
4 | Cc1ccc(S(=O)(=O)N(c2ccccc2)C2CCS(=O)(=O)C2)cc1 (stereo not drawn) | 5.92%
5 | COc1ccc(CCNC(=O)Oc2ccccc2)cc1OC | 12.4%
6 | O=C(NC1CCCCC1)c1cccc(COCC(F)(F)F)c1 | 5.99%
7 | Cc1ccc2cc(C#N)c(N3CCCN(C(=O)c4cnccn4)CC3)nc2c1 | -2.93%
8 | Cc1ccc(-c2ccc(=O)n(CC(=O)NCCC(C)C)n2)cc1 | 7.78%
9 | CCc1ccccc1NC(=O)COc1ccc(N2CC(C(N)=O)CC2=O)cc1 (stereo not drawn) | 16.7%
10 | CCCCCOc1ccc(C(C)(O)C(CN2CCOCC2)c2ccccc2)cc1 (stereo not drawn) | -3.26%
11 | CCN(CC)S(=O)(=O)c1ccc(N/N=C(\C)c2ccc(OC)cc2O)nc1 | 10.1%
12 | CCOC(=O)C1(CC2CCCCO2)CCN(Cc2nc(C(C)C)cs2)CC1 (stereo not drawn) | 10.2%
13 | CCCCN(c1ccccc1)c1ncnc2nc[nH]c12 | -1.81%
14 | Cn1c(N)c(C(=O)COC(=O)C2CCCC2)c(=O)n(C)c1=O | 6.43%
15 | Cc1ncoc1C(=O)Nc1ncc([N+](=O)[O-])s1 | 6.64%
16 | COc1ccc(CCNC(=O)CSc2nncn2N)cc1OC | 12.7%
17 | CCc1ccc(NS(=O)(=O)c2cccs2)cc1 | 3.87%
18 | CCOC(=O)N1CCN(C(=O)c2ccc(Cn3c(=S)[nH]c4cc5c(cc4c3=O)OCO5)cc2)CC1 | 0.169%
19 | O=C(N/C=C\c1ccccc1)NCc1ccc(Cl)cc1Cl | 10.9%
20 | CC(C)(C)c1cc(CSC(=S)NC2CCS(=O)(=O)C2)c(Br)c(C(C)(C)C)c1 (stereo not drawn) | 8.93%
21 | O=C(Nc1cccc(Cl)c1)N1C[C@H]2C[C@@H](C1)c1cccc(=O)n1C2 | 6.71%
22 | COc1ccc(CCNC(=O)c2ccc(=O)[nH]c2)cc1 | 9.9%

Row | SMILES | hERG current change (%, negative = inhibition) at 1uM
23 | O=c1cc2c(nn1Cc1ccccc1)-c1ccccc1CC2 | 8.94%
24 | C=CCn1c(SCc2nc3sc(C(=O)O)c(C)c3c(=O)[nH]2)nnc1-c1ccccc1 | 2.8%
25 | COc1ccc(OC)c2[nH]c(=O)c(CCNC(=O)c3ccc(Br)o3)cc12 | 7.53%
26 | COc1cccc(-n2c(=O)c3sccc3n(CC(=O)NC3CCCC3)c2=O)c1 | 11.2%
27 | CCOC(=O)C1=C(C)NC(C)=C(C(=O)OCC)C1c1cccs1 | 8.78%
28 | C=CCNS(=O)(=O)CC12CCC(CC1=O)C2(C)C (stereo not drawn) | 6.81%
29 | CCOC(=O)C(=O)C1=C(N2CCOCC2)/C(=C\c2ccc(F)cc2)CC1 | 7.93%
30 | Cc1ccc(NC(=O)CN2C(=O)S/C(=C\c3cc(C)n(C)c3C)C2=O)cc1 | 5.99%
31 | O=C(Nc1c(C(=O)N2CCOCC2)cnn1-c1ccccc1)c1ccc(F)cc1 | 12.2%
32 | Clc1ccc(Cn2ncc3c(N4CCCCC4)ncnc32)c(Cl)c1 | 12.3%
33 | Cc1ccc2cc(CN(C(=O)c3cccs3)c3ccccc3)c(=O)[nH]c2c1 | 17.6%
34 | O=C(CSc1oc(-c2ccc(F)cc2)nc1S(=O)(=O)c1ccc(F)cc1)NCC1CCCO1 (stereo not drawn) | 17.9%
35 | O=C(CCCC(=O)N(CC(=O)NC1CCCC1)c1cccc(F)c1)Nc1ccccn1 | 9.73%
36 | Cc1sc2nc[nH]c(=O)c2c1-c1ccc(F)cc1 | 17.2%
37 | Cc1cccc(Nc2nc(N)nc(CSc3nccc(C)n3)n2)c1 | 10.5%
38 | Cc1nc(CNS(=O)(=O)c2cc(F)ccc2F)cs1 | 21.9%
39 | CC1CCCCN1CCNC(=O)C1CCCN(S(=O)(=O)c2cccc3nsnc23)C1 (stereo not drawn) | 8.22%
40 | CO.COC(=O)c1cccc(C(=O)Nc2cnc3ccccc3c2)n1 | 7.29%
41 | CCC(=O)N1CCN(c2ccccc2NC(=O)Cc2ccccc2)CC1 | 0.0591%
42 | CSc1nnc(-c2cc3c(s2)-c2ccccc2CC3)o1 | 3.5%
43 | COc1ccc(CNC(=O)c2cc(COc3c(F)cccc3F)on2)cc1OC | 7.12%
44 | Cc1cccc(NC(=O)[C@@H](CC(C)C)NC(=O)[C@@H]2Cc3ccccc3CN2)c1 | -10.8%

Row | SMILES | hERG current change (%, negative = inhibition) at 1uM
45 | COc1ccc(S(=O)(=O)N2CCCCCC2)cc1NC(=O)c1c2c(nc3ccccc13)CCN(Cc1ccccc1)C2 | 2.13%
46 | O=C(CSc1ccc2c(c1)OCCO2)Nc1ccc(Br)cc1 | 2.11%
47 | Cc1ccc(Nc2nc(N)nc(CSc3nnnn3-c3ccccc3)n2)cc1 | 2.4%
48 | COc1ccc(CNC(=O)CC(NC(N)=O)c2ccccc2Cl)cc1OC (stereo not drawn) | 13.9%
49 | CC1Cc2cc(/C(O)=C3/C(=O)C(=O)N(CCCn4ccnc4)C3c3ccc(Br)cc3)ccc2O1 (stereo not drawn) | 10.6%
50 | Cc1ccccc1NC1=NC(=S)N(c2ccccc2)C12CCOC(C)(C)C2 (stereo not drawn) | 10.5%
51 | COCCCn1cc(C(=O)c2cc(Br)ccc2O)cc(C#N)c1=O | 12.8%
52 | CCOc1cc(/C=N/Nc2nc(=O)[nH]nc2C)ccc1O | 14.7%
53 | Cc1cc(C)n(-c2ccc(C(=O)O)cc2)n1 | 11.9%
54 | O=C(O)CC(NS(=O)(=O)Cc1ccccc1)c1cccc([N+](=O)[O-])c1 (stereo not drawn) | 14.7%
55 | Cc1ccc(NC(=O)c2ccco2)c(NC(=O)c2cccs2)c1 | 10.9%
56 | O=C(NCC1c2ccccc2CCN1C(=O)CN1CCOCC1)C1CCCCC1 (stereo not drawn) | 4.11%
57 | COCCNC(=S)N/N=C/c1ccccc1C(=O)O | 2.68%
58 | CCOC(=O)c1sc2ncnc(OC)c2c1C | 12.9%
59 | O=C(Nc1ccc2c(c1)OCCO2)c1ccc(Cl)c(S(=O)(=O)N2CCCCC2)c1 | 3.5%
60 | CCC(C)(C(=O)NC1CCCCC1)N(Cc1ccco1)C(=O)c1cnccn1 (stereo not drawn) | -4.04%
61 | COc1cccc2c1c(NC(=O)c1cc(C)on1)nn2C | 12.8%
62 | C=CCOc1cccc(C(=O)N2CCCC(CCC(=O)NCc3ccccc3F)C2)c1 (stereo not drawn) | 3.54%
63 | C1COCCO1.CCOc1ccc(N2C(=O)CC(N(CCc3ccc(OC)c(OC)c3)C(=S)Nc3ccccc3)C2=O)cc1 (stereo not drawn) | 7.55%
64 | Cc1occc1C(=O)N(C)Cc1nc(-c2ccccc2)no1 | 4.33%
65 | NC(=O)N/N=C/c1cccc(OCc2ccc(F)cc2)c1 | 9.59%
66 | CN(C)c1nc(N/N=C\c2ccc(Cl)c([N+](=O)[O-])c2)nc(Nc2ccc(F)cc2)n1 | -2.57%

Row | SMILES | hERG current change (%, negative = inhibition) at 1uM
67 | CCOC(=O)/C(C#N)=C/c1c(N2CCN(c3ccccc3)CC2)nc2ccccn2c1=O | 1.9%
68 | NP(=O)(OCCCc1ccccc1)c1ccccc1 (stereo not drawn) | 12.5%
69 | CC(C)C(=O)Nc1ccc(NC(=S)NC(=O)c2ccc([N+](=O)[O-])cc2)cc1 | -5.14%
70 | O=C1c2ccccc2C(Nc2ccccc2F)N1c1cccnc1 (stereo not drawn) | 2.3%
71 | CCOc1ccc(NC(=O)N2CC=C(n3c(=O)[nH]c4ccccc43)CC2)cc1 | 5.69%
72 | Cc1ccc2sc(NNC(=O)c3cc(-c4cccs4)nc4ccccc34)nc2c1C | 9.54%
73 | COc1ccc(OCc2nnc(SCc3ccc(C(=O)O)cc3)o2)cc1 | 16.6%
74 | Cc1cc(NC(=O)CSc2nc3ccccc3c(=O)n2C(C)c2ccccc2)no1 (stereo not drawn) | 8.49%
75 | CCOc1cccc(C(=O)Nc2ccc(N3CCN(S(C)(=O)=O)CC3)cc2)c1 | 5.55%
76 | COc1ccccc1N1CCN(C(=O)C(=O)c2c[nH]c3ccccc23)CC1 | 12.9%
77 | O=C(CCC(=O)c1ccc(F)cc1)Nc1cccc(Br)c1 | 11%
78 | CN(CC(=O)Nc1ccc(OC(F)(F)F)cc1)C(=O)c1ccc(N2CCCC2=O)cc1 | 3.68%
79 | COc1ccc(CCn2nc(C)c([N+](=O)[O-])c2C)cc1 | 7.6%
80 | COc1cc(/C=N/NC(=O)c2cccc([N+](=O)[O-])c2)ccc1OCc1ccccc1 | 4.07%
81 | CC(OC(=O)c1ccc(O)cc1)C(=O)Nc1cc(C(F)(F)F)ccc1Cl (stereo not drawn) | 7.01%
82 | COc1ccc(Br)cc1S(=O)(=O)n1c([N+](=O)[O-])cnc1C | 19%
83 | COc1ccc(Nc2ccc(C(F)(F)F)cc2[N+](=O)[O-])cn1 | 14.1%
84 | CC1(NC(=O)CC(c2ccccc2)(c2ccccc2)c2ccccc2)CCN(CCCc2ccccc2)C1=O (stereo not drawn) | 14.7%
85 | Brc1ccc(-n2cc(-c3ccccc3)c3c(NN4CCOCC4)ncnc32)cc1 | 4.71%
86 | C=C(C)CNC(=S)NNC(=O)CCn1c2ccc(Cl)cc2c2cc(Cl)ccc21 | 5.97%
87 | O=C(OCC(=O)N(CCc1ccccc1)Cc1ccccc1)c1ccccc1O | 10.1%
